Data published in publication PMC5590943, “Pharmacological characterisation of S 47445, a novel positive allosteric modulator of AMPA receptors” (PLoS ONE, 2017).
Where two headings read alike, the source gives them in different places.

System: Na+ channel (site 2)

## O=C1c2cc3nnn(CCc4cccc(F)c4)c(=O)c3cc2OCN1C1CC1 [S 47445, 8-cyclopropyl-3-[2-(3-fluorophenyl)ethyl]-7,8-dihydro-3H-[1,3]oxazino[6,5-g][1,2,3]benzotriazine-4,9-dione]
S 47445 1.0E-05 M
  % Inhibition of control specific binding: 41%
S 47445 1.0E-07 M
  % Inhibition of control specific binding: 2%
